Reference: PubChem BioAssay AID1508649 (National Center for Advancing Translational Sciences (NCATS), 2021)
The whole screen tested about 43,000 compounds, of which about 830 (1.9%) were called active. This list was built around the results that the source calls inconclusive (neither active nor inactive); the mix of calls is not that of the screen. Rule for the calls: active = clear falling dose curves in both reporters; inconclusive = both reporters move, but less clearly or upward; inactive = either reporter flat; the % is the NLuc reporter signal. No potency is given beside an inconclusive call; the fits are too rough.

Assay: Cell-based coincidence reporter assay to measure PMP22 gene transcription in S16 Pmp22-F2sN cells - Primary screen
Details: S16 Pmp22-F2sN Schwann cells (luciferase reporters placed in the Pmp22 gene), FLuc/NLuc coincidence luminescence, 24 h; measured here: NLuc reporter readout, at 57.5 µM (top of the series)
Outline: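 Luminescent read-out of sequential FLuc and NLuc signals from a reporter embedded in the Pmp22 3' UTR of S16 Schwann cells, taken after 24 h compound exposure at 37C; compounds reducing both signals score as inhibitors of expression.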
Potency is the fitted concentration of half-maximal effect; tags give direction and shape of the fitted curve.

| SMILES | Potency |
| --- | --- |
| CCc1ccc(NC(=O)Cn2c(=O)n(Cc3ccco3)c(=O)c3oc4ccccc4c32)cc1 | inconclusive [phenotype inactive, single point] |
| CCCCC(=O)OC1=C(C(=O)c2ccccc2)N(CCC)S(=O)(=O)c2ccccc21 | inconclusive [phenotype inactive, single point] |
| CCc1ccc(NC(=O)CSC2=Nc3ccccc3C3=NC(CCC(=O)NCc4ccccc4)C(=O)N23)cc1 (stereo unspecified) | inactive |
| Cc1ccccc1NC(=O)Cn1cc(C(=O)c2cccs2)c2ccccc21 | inconclusive [phenotype inactive, single point] |
| CCOc1cc(C(=O)NCCc2sc(-c3ccc(F)cc3)nc2C)cc(OCC)c1OCC | inconclusive [phenotype inactive, single point] |
| CNC(=O)CCCN1C(=O)c2cccnc2Sc2ccccc21 | inconclusive [phenotype inactive, single point] |
| O=C(Cc1ccccc1)Nc1sc2c(c1C(=O)Nc1ccc(Br)cc1)CCC2 | inactive |
| O=S(=O)(NCCS(=O)(=O)N1CCN(c2ccccc2)CC1)c1ccc(Br)cc1 | inactive |
| CCc1ccc(-n2nc(C)c3c(C)cc(=O)n(Cc4nc(-c5ccccc5)oc4C)c32)cc1 | inconclusive [phenotype inactive, single point] |
| CCOC(=O)c1c(-c2ccccc2)oc2ccc(NS(=O)(=O)c3cc(C)c(C)cc3C)cc12 | inconclusive [phenotype inactive, single point] |
| COc1ccc(S(=O)(=O)c2cnc3ccc(Cl)cc3c2N2CCCCC2C)cc1 (stereo unspecified) | inconclusive [phenotype inactive, partial curve] |
| CC(=O)C1=C(c2ccc(C)cc2)N(C(C)=O)n2c(nnc2C2CCCCC2)S1 | inconclusive [phenotype inactive, single point] |
| O=C(NCc1ccc2c(c1)CCN2C(=O)c1ccccc1)c1cc2ccccc2[nH]1 | inconclusive [phenotype inactive, single point] |
| COc1ccc(C(C(=O)NCc2ccccc2)N(C(=O)Cn2nnc3ccccc32)c2cccc(OC)c2)cc1 (stereo unspecified) | inconclusive [phenotype inactive, single point] |
| CC(C)CCNC(=O)c1ccc2c(c1)NC(=O)C(CS(=O)(=O)Cc1ccc(F)cc1)N2 (stereo unspecified) | inconclusive [phenotype inactive, single point] |
| COc1ccc(NC(=O)CCSc2nc(-c3ccc(OC)cc3)cc(C(F)(F)F)n2)cc1 | inconclusive [phenotype inactive, single point] |
| CCCc1cc(=O)n2[nH]c(NC(=O)c3ccc(C(C)(C)C)cc3)nc2n1 | inconclusive [phenotype inactive, single point] |
| COc1cccc(CNC(=O)c2cc(-c3ccc(Cl)cc3)n[nH]2)c1 | inactive |

| SMILES | Potency |
| --- | --- |
| Cc1sc(-n2cccc2)c(C(C)NC(=O)Nc2cccc(C(F)(F)F)c2)c1C (stereo unspecified) | inconclusive [phenotype inactive, single point] |
| Cc1cc(C)c2sc(NC(=O)c3ccc(S(=O)(=O)N4CCCC4)cc3)nc2c1 | inconclusive [phenotype inactive, single point] |
| Cc1ccc([N+](=O)[O-])cc1NC(=O)CN(c1ccccc1)S(=O)(=O)N(C)C | inactive |
| Cc1ccc(Cn2c(SCC(=O)NCc3ccccc3)nc3ccsc3c2=O)cc1 | inconclusive [phenotype inactive, single point] |
| CCOC(=O)c1cc2c(=O)n3ccccc3nc2n(Cc2ccco2)c1=NC(=O)c1ccccc1Br | inconclusive [phenotype inactive, single point] |
| CCOc1ccc(CC(=O)NC2CC(=O)N(c3cccc(F)c3)C2)cc1 (stereo unspecified) | inactive |
| COc1ccc(NC(=O)Cn2c(=O)n(Cc3ccc(C(=O)NCc4ccccc4Cl)cc3)c(=O)c3ccccc32)cc1OC | inactive |
| COc1ccc(NC(=O)CSc2nc(-c3ccco3)cc(C(F)(F)F)n2)cc1 | inconclusive [phenotype inactive, partial curve] |
| CCOc1ccc(C(=O)c2cn(Cc3ccc(Cl)cc3)c3cc(OC)c(OC)cc3c2=O)cc1 | inconclusive [phenotype inactive, single point] |
| Cc1cc(F)ccc1S(=O)(=O)Nc1ccc2c(c1)CCCN2C(=O)c1cccs1 | inconclusive [phenotype inactive, single point] |
| Cc1nnc(N2CCC(C(=O)NC3CCCCC3)CC2)c2nn(-c3ccc(Cl)cc3)c(C)c12 | inactive |
| Cc1ccc(NC(=O)Cn2c(=O)n(Cc3ccco3)c(=O)c3ccc(C(=O)NC4CCCC4)cc32)c(C)c1 | inconclusive [phenotype inactive, partial curve] |
| COc1ccc(OC)c(NC(=O)CN(C)S(=O)(=O)c2ccc3[nH]c4c(c3c2)CCCC4)c1 | inconclusive [phenotype inactive, partial curve, poor fit] |
| CCOc1ccc(NC(=O)c2c(NC(=O)Cc3ccccc3)sc3c2CCC(C)C3)cc1 (stereo unspecified) | active: 18.9 µM |
| CCC(=O)N1CCc2cc(S(=O)(=O)CCC(=O)N3CCN(c4cc(C)ccc4C)CC3)ccc21 | inconclusive [phenotype inactive, single point] |
| COc1ccc(C2(CNC(=O)C(=O)Nc3ccc(F)cc3)CCCC2)cc1OC | inconclusive [phenotype inactive, full curve] |
| COc1ccc(NS(=O)(=O)c2ccc3[nH]c4c(c3c2)CCCC4)cc1Cl | inconclusive [phenotype inactive, single point] |
| Cc1ccc(CN2C(=O)c3oc4ccc(C)cc4c(=O)c3C2c2ccc(O)cc2)cc1 (stereo unspecified) | inconclusive [phenotype inactive, single point] |
